# Measured values reported in paper PMC12820563, “FoxP3 forms a head-to-head dimer in vivo and stabilizes its multimerization on adjacent microsatellites”.
# The other results are listed elsewhere or left out.
# Target: T1, MBP-FoxP1dN (Mus musculus, UniProt P58462 326-579)
# T1 sequence: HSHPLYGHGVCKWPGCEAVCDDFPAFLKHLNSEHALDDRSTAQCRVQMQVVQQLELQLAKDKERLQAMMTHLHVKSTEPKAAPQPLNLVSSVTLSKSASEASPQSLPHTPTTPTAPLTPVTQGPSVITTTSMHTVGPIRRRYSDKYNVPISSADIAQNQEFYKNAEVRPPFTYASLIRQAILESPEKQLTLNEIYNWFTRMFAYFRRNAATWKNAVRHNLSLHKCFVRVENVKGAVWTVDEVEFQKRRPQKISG
# Test: PD-seq (MBP pull-down with sequencing); 20 mM Tris-HCl pH 7.5, 100 mM NaCl, 1.5 mM MgCl2, 0.4 uM protein, 0.1 uM dsDNA library, 30 min, room temperature, amylose pull-down; high values mean tight binding
# Conditions: protein: recombinant; tags: His6-MBP; chain copies: 2; dsDNA, one strand shown
# Procedure, shortened: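 Binding is reads-per-million enrichment of pull-down over input, with replicates pooled. It comes from 30 min room-temperature incubation in Tris pH 7.5 buffer with NaCl and MgCl2 of 0.4 µM His6-MBP-tagged, N-terminally truncated mouse FoxP3 or FoxP1 fragment from E. coli with 0.1 µM Klenow-filled degenerate double-stranded DNA library, followed by amylose resin capture, three washes and Illumina sequencing of the released DNA.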
row,Sequence,binding signal
1,GATGATTGTTCTCCCAGCTGATGAATTGTAGGTGTCGAGTAAACAAATTTTCCTAATCTTTCTGTTCAAGCGCCATCTAC,0.949 RPM ratio (pull-down/input)
2,GATGATTGTTCTCCCAGCTGATGAATTCTTTTTTTCGAGTAAACAAATTTTCCTAATCTTTCTGTTCAAGCGCCATCTAC,1.07 RPM ratio (pull-down/input)
3,GATGATTGTTCTCCCAGCTGATGAATTAGAGCCATCGAGTAAACAAATTTTCCTAATCTTTCTGTTCAAGCGCCATCTAC,0.924 RPM ratio (pull-down/input)
4,GATGATTGTTCTCCCAGCTGATGAATTGCGAGTGTCGAGTAAACAAATTTTCCTAATCTTTCTGTTCAAGCGCCATCTAC,1.04 RPM ratio (pull-down/input)
5,GATGATTGTTCTCCCAGCTGATGAATTCTTGGTTTCGAGTAAACAAATTTTCCTAATCTTTCTGTTCAAGCGCCATCTAC,0.962 RPM ratio (pull-down/input)
6,GATGATTGTTCTCCCAGCTGATGAATTTCATGCATCGAGTAAACAAATTTTCCTAATCTTTCTGTTCAAGCGCCATCTAC,1.08 RPM ratio (pull-down/input)
7,GATGATTGTTCTCCCAGCTGATGAATTAAAAGTTTCGAGTAAACAAATTTTCCTAATCTTTCTGTTCAAGCGCCATCTAC,1.04 RPM ratio (pull-down/input)
8,GATGATTGTTCTCCCAGCTGATGAATTCCACAATTCGAGTAAACAAATTTTCCTAATCTTTCTGTTCAAGCGCCATCTAC,1.01 RPM ratio (pull-down/input)
9,GATGATTGTTCTCCCAGCTGATGAATTAAACGTTTCGAGTAAACAAATTTTCCTAATCTTTCTGTTCAAGCGCCATCTAC,0.922 RPM ratio (pull-down/input)
10,GATGATTGTTCTCCCAGCTGATGAATTTTTGAAATCGAGTAAACAAATTTTCCTAATCTTTCTGTTCAAGCGCCATCTAC,1 RPM ratio (pull-down/input)
11,GATGATTGTTCTCCCAGCTGATGAATTGCGAGGCTCGAGTAAACAAATTTTCCTAATCTTTCTGTTCAAGCGCCATCTAC,0.959 RPM ratio (pull-down/input)
12,GATGATTGTTCTCCCAGCTGATGAATTATGGGTATCGAGTAAACAAATTTTCCTAATCTTTCTGTTCAAGCGCCATCTAC,1.03 RPM ratio (pull-down/input)
13,GATGATTGTTCTCCCAGCTGATGAATTGCTTAAGTCGAGTAAACAAATTTTCCTAATCTTTCTGTTCAAGCGCCATCTAC,0.985 RPM ratio (pull-down/input)
14,GATGATTGTTCTCCCAGCTGATGAATTCGGCGGATCGAGTAAACAAATTTTCCTAATCTTTCTGTTCAAGCGCCATCTAC,0.783 RPM ratio (pull-down/input)
15,GATGATTGTTCTCCCAGCTGATGAATTTGTTAAGTCGAGTAAACAAATTTTCCTAATCTTTCTGTTCAAGCGCCATCTAC,1.17 RPM ratio (pull-down/input)
16,GATGATTGTTCTCCCAGCTGATGAATTGGGTTCATCGAGTAAACAAATTTTCCTAATCTTTCTGTTCAAGCGCCATCTAC,0.836 RPM ratio (pull-down/input)
17,GATGATTGTTCTCCCAGCTGATGAATTGTACAGTTCGAGTAAACAAATTTTCCTAATCTTTCTGTTCAAGCGCCATCTAC,0.975 RPM ratio (pull-down/input)
18,GATGATTGTTCTCCCAGCTGATGAATTCTACCTATCGAGTAAACAAATTTTCCTAATCTTTCTGTTCAAGCGCCATCTAC,0.867 RPM ratio (pull-down/input)
19,GATGATTGTTCTCCCAGCTGATGAATTAACCCAATCGAGTAAACAAATTTTCCTAATCTTTCTGTTCAAGCGCCATCTAC,1.02 RPM ratio (pull-down/input)
20,GATGATTGTTCTCCCAGCTGATGAATTGGCTAATTCGAGTAAACAAATTTTCCTAATCTTTCTGTTCAAGCGCCATCTAC,0.945 RPM ratio (pull-down/input)
21,GATGATTGTTCTCCCAGCTGATGAATTTGTCGGGTCGAGTAAACAAATTTTCCTAATCTTTCTGTTCAAGCGCCATCTAC,0.897 RPM ratio (pull-down/input)

row,Sequence,binding signal
1,GATGATTGTTCTCCCAGCTGATGAATTCCTGTAGTCGAGTAAACAAATTTTCCTAATCTTTCTGTTCAAGCGCCATCTAC,0.949 RPM ratio (pull-down/input)
2,GATGATTGTTCTCCCAGCTGATGAATTGCAATAGTCGAGTAAACAAATTTTCCTAATCTTTCTGTTCAAGCGCCATCTAC,1.19 RPM ratio (pull-down/input)
3,GATGATTGTTCTCCCAGCTGATGAATTCATAAAATCGAGTAAACAAATTTTCCTAATCTTTCTGTTCAAGCGCCATCTAC,1.11 RPM ratio (pull-down/input)
4,GATGATTGTTCTCCCAGCTGATGAATTGTAATAGTCGAGTAAACAAATTTTCCTAATCTTTCTGTTCAAGCGCCATCTAC,1.1 RPM ratio (pull-down/input)
5,GATGATTGTTCTCCCAGCTGATGAATTGATCATGTCGAGTAAACAAATTTTCCTAATCTTTCTGTTCAAGCGCCATCTAC,1 RPM ratio (pull-down/input)
6,GATGATTGTTCTCCCAGCTGATGAATTTTTGTAGTCGAGTAAACAAATTTTCCTAATCTTTCTGTTCAAGCGCCATCTAC,1.29 RPM ratio (pull-down/input)
7,GATGATTGTTCTCCCAGCTGATGAATTTCCCCAATCGAGTAAACAAATTTTCCTAATCTTTCTGTTCAAGCGCCATCTAC,1.02 RPM ratio (pull-down/input)
8,GATGATTGTTCTCCCAGCTGATGAATTCATGGTCTCGAGTAAACAAATTTTCCTAATCTTTCTGTTCAAGCGCCATCTAC,0.794 RPM ratio (pull-down/input)
9,GATGATTGTTCTCCCAGCTGATGAATTTTTTGAATCGAGTAAACAAATTTTCCTAATCTTTCTGTTCAAGCGCCATCTAC,1.1 RPM ratio (pull-down/input)
10,GATGATTGTTCTCCCAGCTGATGAATTAACTGCATCGAGTAAACAAATTTTCCTAATCTTTCTGTTCAAGCGCCATCTAC,1.19 RPM ratio (pull-down/input)
11,GATGATTGTTCTCCCAGCTGATGAATTAATTGTTTCGAGTAAACAAATTTTCCTAATCTTTCTGTTCAAGCGCCATCTAC,1.44 RPM ratio (pull-down/input)
12,GATGATTGTTCTCCCAGCTGATGAATTTTGCTCTTCGAGTAAACAAATTTTCCTAATCTTTCTGTTCAAGCGCCATCTAC,0.708 RPM ratio (pull-down/input)
13,GATGATTGTTCTCCCAGCTGATGAATTGGCTCACTCGAGTAAACAAATTTTCCTAATCTTTCTGTTCAAGCGCCATCTAC,0.857 RPM ratio (pull-down/input)
14,GATGATTGTTCTCCCAGCTGATGAATTCCTTCCATCGAGTAAACAAATTTTCCTAATCTTTCTGTTCAAGCGCCATCTAC,0.876 RPM ratio (pull-down/input)
15,GATGATTGTTCTCCCAGCTGATGAATTATCTTATTCGAGTAAACAAATTTTCCTAATCTTTCTGTTCAAGCGCCATCTAC,0.949 RPM ratio (pull-down/input)
16,GATGATTGTTCTCCCAGCTGATGAATTTCAATCTTCGAGTAAACAAATTTTCCTAATCTTTCTGTTCAAGCGCCATCTAC,0.875 RPM ratio (pull-down/input)
17,GATGATTGTTCTCCCAGCTGATGAATTAGGCTATTCGAGTAAACAAATTTTCCTAATCTTTCTGTTCAAGCGCCATCTAC,0.885 RPM ratio (pull-down/input)
18,GATGATTGTTCTCCCAGCTGATGAATTCGCAGTTTCGAGTAAACAAATTTTCCTAATCTTTCTGTTCAAGCGCCATCTAC,0.859 RPM ratio (pull-down/input)
19,GATGATTGTTCTCCCAGCTGATGAATTAGGAGGGTCGAGTAAACAAATTTTCCTAATCTTTCTGTTCAAGCGCCATCTAC,0.796 RPM ratio (pull-down/input)
20,GATGATTGTTCTCCCAGCTGATGAATTCCCAGCCTCGAGTAAACAAATTTTCCTAATCTTTCTGTTCAAGCGCCATCTAC,0.768 RPM ratio (pull-down/input)
21,GATGATTGTTCTCCCAGCTGATGAATTACTACGGTCGAGTAAACAAATTTTCCTAATCTTTCTGTTCAAGCGCCATCTAC,0.974 RPM ratio (pull-down/input)

row,Sequence,binding signal
1,GATGATTGTTCTCCCAGCTGATGAATTATGATCCTCGAGTAAACAAATTTTCCTAATCTTTCTGTTCAAGCGCCATCTAC,0.908 RPM ratio (pull-down/input)
2,GATGATTGTTCTCCCAGCTGATGAATTGACATTCTCGAGTAAACAAATTTTCCTAATCTTTCTGTTCAAGCGCCATCTAC,1.25 RPM ratio (pull-down/input)
3,GATGATTGTTCTCCCAGCTGATGAATTTACAAATTCGAGTAAACAAATTTTCCTAATCTTTCTGTTCAAGCGCCATCTAC,1.54 RPM ratio (pull-down/input)
4,GATGATTGTTCTCCCAGCTGATGAATTCGGGACTTCGAGTAAACAAATTTTCCTAATCTTTCTGTTCAAGCGCCATCTAC,0.778 RPM ratio (pull-down/input)
5,GATGATTGTTCTCCCAGCTGATGAATTTGCTCAGTCGAGTAAACAAATTTTCCTAATCTTTCTGTTCAAGCGCCATCTAC,0.919 RPM ratio (pull-down/input)
6,GATGATTGTTCTCCCAGCTGATGAATTAACATATTCGAGTAAACAAATTTTCCTAATCTTTCTGTTCAAGCGCCATCTAC,1.25 RPM ratio (pull-down/input)
7,GATGATTGTTCTCCCAGCTGATGAATTTGCGGCGTCGAGTAAACAAATTTTCCTAATCTTTCTGTTCAAGCGCCATCTAC,0.949 RPM ratio (pull-down/input)
8,GATGATTGTTCTCCCAGCTGATGAATTGTCTGGGTCGAGTAAACAAATTTTCCTAATCTTTCTGTTCAAGCGCCATCTAC,0.864 RPM ratio (pull-down/input)
9,GATGATTGTTCTCCCAGCTGATGAATTAGCCGGCTCGAGTAAACAAATTTTCCTAATCTTTCTGTTCAAGCGCCATCTAC,0.727 RPM ratio (pull-down/input)
10,GATGATTGTTCTCCCAGCTGATGAATTTCTGGGTTCGAGTAAACAAATTTTCCTAATCTTTCTGTTCAAGCGCCATCTAC,0.74 RPM ratio (pull-down/input)
11,GATGATTGTTCTCCCAGCTGATGAATTGTCAGCCTCGAGTAAACAAATTTTCCTAATCTTTCTGTTCAAGCGCCATCTAC,0.917 RPM ratio (pull-down/input)
12,GATGATTGTTCTCCCAGCTGATGAATTGTACGCTTCGAGTAAACAAATTTTCCTAATCTTTCTGTTCAAGCGCCATCTAC,1.02 RPM ratio (pull-down/input)
13,GATGATTGTTCTCCCAGCTGATGAATTCGCGGTTTCGAGTAAACAAATTTTCCTAATCTTTCTGTTCAAGCGCCATCTAC,0.843 RPM ratio (pull-down/input)
14,GATGATTGTTCTCCCAGCTGATGAATTGTCGCTATCGAGTAAACAAATTTTCCTAATCTTTCTGTTCAAGCGCCATCTAC,1.11 RPM ratio (pull-down/input)
15,GATGATTGTTCTCCCAGCTGATGAATTTAACAATTCGAGTAAACAAATTTTCCTAATCTTTCTGTTCAAGCGCCATCTAC,1.01 RPM ratio (pull-down/input)
16,GATGATTGTTCTCCCAGCTGATGAATTTCCACAATCGAGTAAACAAATTTTCCTAATCTTTCTGTTCAAGCGCCATCTAC,1.2 RPM ratio (pull-down/input)
17,GATGATTGTTCTCCCAGCTGATGAATTGCAGAACTCGAGTAAACAAATTTTCCTAATCTTTCTGTTCAAGCGCCATCTAC,1.06 RPM ratio (pull-down/input)
18,GATGATTGTTCTCCCAGCTGATGAATTTCCATATTCGAGTAAACAAATTTTCCTAATCTTTCTGTTCAAGCGCCATCTAC,0.917 RPM ratio (pull-down/input)
19,GATGATTGTTCTCCCAGCTGATGAATTCCACATGTCGAGTAAACAAATTTTCCTAATCTTTCTGTTCAAGCGCCATCTAC,0.875 RPM ratio (pull-down/input)
20,GATGATTGTTCTCCCAGCTGATGAATTCCATCGATCGAGTAAACAAATTTTCCTAATCTTTCTGTTCAAGCGCCATCTAC,0.854 RPM ratio (pull-down/input)
21,GATGATTGTTCTCCCAGCTGATGAATTCTGCCGCTCGAGTAAACAAATTTTCCTAATCTTTCTGTTCAAGCGCCATCTAC,0.816 RPM ratio (pull-down/input)
